# From PubChem BioAssay AID1347073 (National Center for Advancing Translational Sciences (NCATS), 2019)
# Screen size: about 45,000 compounds; about 200 (0.44%) were called active. The shares of active, inactive and inconclusive entries below differ from those in the screen. Calls follow the shape of the dose curve; as a rule, active = well fitted activation curve with a large enough effect; inconclusive = small, poorly fitted or top-dose-only effect; inactive = no such curve, though single readings can be large or run the other way. A potency beside an inconclusive call is a rough fit, not a confirmed value.
# Assay: qHTS of TDP-43 Inhibitors: NCGC Sytravon Library Screen; also: nearly all actives have a fitted effect of over 55% in size; as to growth rescue (activation): 0% is about no effect
# Conditions: yeast TDP-43 toxicity rescue, BacTiter-Glo growth, 24 h; growth rescue (activation): at 46.1 µM (top of the series)
# Method in brief: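 TDP-43-expressing yeast, pregrown in raffinose, seeded at OD600 0.02 in galactose medium with compound for 24 hr at 30 deg C. Growth read by BacTiter-Glo luminescence, so rescue of toxicity appears as activation.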
# Potency is read from the fitted curve at half-maximal effect; tags tell the direction and shape of the fitted curve.
Structure (SMILES),Potency,growth rescue (activation)
N/C(=N\OC(=O)COc1ccc(Br)cc1Cl)c1ccncc1,"inconclusive: 11.2 µM [activator, single point]",–
Cc1ccc(NC(=O)CSc2nnc(-c3cccs3)o2)cc1S(=O)(=O)N1CCCCC1,inactive,–
O=C(NC(=S)Nc1ccccc1N1CCCCC1)c1ccc(F)cc1Cl,"inconclusive: 20 µM [activator, partial curve, poor fit]",–
O=C(Nc1ccccc1)c1sccc1Oc1ccc([N+](=O)[O-])cc1F,"inconclusive: 14.1 µM [activator, single point]",–
CC(=O)NC(CC(=O)Nc1ccc2c(c1)OCCO2)c1ccccc1 (configuration not stated),inactive,–
O=C(NC(=S)Nc1ccc(-c2ccc(CO)o2)cc1)c1cccs1,inactive,–
CC(=O)Nc1ccc(C(=O)OCc2ccc(F)cc2Cl)cc1,"inconclusive: 11.2 µM [activator, partial curve]",–
Cn1c(=O)c2c(nc(N3CCCCCC3)n2Cc2cccc3ccccc23)n(C)c1=O,"inconclusive: 35.5 µM [activator, partial curve, poor fit]",–
COc1ccc(CSc2nnnn2-c2ccc(O)cc2)cc1F,"inconclusive: 12.6 µM [activator, partial curve, poor fit]",–
CCN(C(=O)COC(=O)c1ccc[nH]c1=O)c1cccc2ccccc12,inactive,–
NC(=O)c1cc(NC(=O)c2ccc(NS(=O)(=O)c3cccs3)cc2)cc(C(N)=O)c1,"inconclusive: 35.5 µM [activator, single point]",–
CCNC(=O)COC(=O)c1cc(S(=O)(=O)N2CCCc3ccccc32)ccc1Cl,"inconclusive: 35.5 µM [activator, single point]",–
CC(C)C(=O)Nc1nc2cc3c(cc2s1)OCCO3,"inconclusive: 35.5 µM [activator, single point]",–
S=C(Nc1ccc(Cl)cc1Cl)Nn1cnnc1,"inconclusive: 12.6 µM [activator, single point]",–
COC(=O)c1sc(S(=O)(=O)N2CCN(c3ccccc3F)CC2)c(C(=O)OC)c1C,inactive,–
Cc1nc(C)n(C(C)CNS(=O)(=O)c2ccc(C)c(C)c2)n1 (configuration not stated),inactive,–
COc1ccc(C(C)(O)c2nc(-c3ccccc3OC)cs2)cc1 (configuration not stated),"inconclusive: 14.1 µM [activator, partial curve, poor fit]",–
C=CCS/C(N)=N\N=C\c1cc(Br)cc([N+](=O)[O-])c1O,"inconclusive: 12.6 µM [activator, partial curve]",–
CC(C)(C)c1cc2nc(NCCOc3ccccc3)ccn2n1,inactive,–
CC1=C/C(=N\NC(=S)NCCc2ccccc2)CC(C)(C)C1,"inconclusive: 11.2 µM [activator, partial curve]",–
O=C(NC1CCSc2ccccc21)c1cccc(OC(F)F)c1 (configuration not stated),"inconclusive: 20 µM [activator, single point]",–
O=C(Nc1ccccc1)OC1CCC2CC1CCC2OC(=O)Nc1ccccc1 (configuration not stated),"inconclusive: 17.8 µM [activator, partial curve, poor fit]",–
O=C(CCc1c[nH]c2ccccc12)NCCc1ccc(Cl)cc1,"inconclusive: 35.5 µM [activator, partial curve, poor fit]",–

Structure (SMILES),Potency,growth rescue (activation)
C=CCn1c(N)c(C(=O)OCC(C)C)c2nc3ccccc3nc21,"inconclusive: 20 µM [activator, single point]",–
CC(C)(C)c1cc(Cl)c(O)c(NC(=S)NC(=O)c2cccnc2)c1,"inconclusive: 15.8 µM [activator, partial curve, poor fit]",–
COCCCNC(=O)c1cccc2c(-c3ccc(O)c(OC)c3)coc12,–,inconclusive: 69.4% [activator]
O/N=C(/c1ccc(Cl)cc1)C1CC1c1ccccc1 (configuration not stated),active: 11.2 µM,–
O=C(CNC(=O)c1ccccc1F)N/N=C/c1cc(Br)ccc1OC(=O)/C=C/c1ccco1,"inconclusive: 8.91 µM [activator, partial curve]",–
O=C(O)c1cc(-c2ccc(Cl)cc2)n(-c2ccc(Cl)cc2)n1,"inconclusive: 35.5 µM [activator, single point]",–
COc1ccccc1C(=O)NNC(=S)NC(=O)c1sc2ccccc2c1Cl,"inconclusive: 17.8 µM [activator, partial curve, poor fit]",–
CC1CCCCC1NC(=O)CO/N=C/c1ccccc1OC(F)F (configuration not stated),"inconclusive: 15.8 µM [activator, single point]",–
O=C(Cn1ccc([N+](=O)[O-])n1)Nc1nc2ccccc2s1,inactive,–
COc1ccc(/C=C(\C#N)C(=O)NCc2cccnc2)cc1OC,inactive,–
Cc1cccc(/C=C2\Oc3cc(OS(C)(=O)=O)ccc3C2=O)c1,"inconclusive: 22.4 µM [activator, single point]",–
Nc1ccc2nc(SCc3cccc(F)c3)sc2c1,"inconclusive: 12.6 µM [activator, partial curve, poor fit]",–
COc1ccccc1C(=O)NC(=O)CSc1ccc(C)c(C)c1,"inconclusive: 20 µM [activator, single point]",–
O=C(O/N=C(/c1ccccc1)c1ccncc1)c1ccc(F)cc1,"inconclusive: 14.1 µM [activator, single point]",–
CCCCC1(C)NC(=O)N(CC(=O)Nc2ccc(Cl)cc2C)C1=O (configuration not stated),inactive,–
CC(=O)Nc1ccc(S(=O)(=O)NNC(=O)c2cccc(Cl)c2)cc1,inactive,–
Cc1ccc(SCC(=O)N2CCN(S(=O)(=O)c3cccs3)CC2)cc1,"inconclusive: 12.6 µM [activator, partial curve, poor fit]",–
COc1ccc(OC)c(S(=O)(=O)N2Cc3ccccc3CC2C(=O)Nc2ccc(C(C)=O)cc2)c1 (configuration not stated),"inconclusive: 12.6 µM [activator, partial curve, poor fit]",–
Cc1ccc(N(CCC#N)C(=O)CSc2ccc3c(c2)OCCO3)cc1,"inconclusive: 31.6 µM [activator, single point]",–
N/C(=N\OC(=O)c1cc(Br)ccc1Cl)c1ccccn1,"inconclusive: 35.5 µM [activator, single point]",–
CCOc1ccc2nc(C(=O)N3CCCC(C)C3)sc2c1 (configuration not stated),"inconclusive: 12.6 µM [activator, partial curve, poor fit]",–
CCOC(=O)c1c(C)[nH]c(C)c1C(=O)COC(=O)c1cc2ccccc2cc1O,"inconclusive: 35.5 µM [activator, single point]",–
CC(NC(=O)C12CC3CC(CC(C3)C1)C2)C(=O)NN=Cc1ccc([N+](=O)[O-])o1 (configuration not stated),"inconclusive: 10 µM [activator, partial curve, poor fit]",–

Structure (SMILES),Potency,growth rescue (activation)
CCN(CC)C(=O)CN(c1cccc([N+](=O)[O-])c1)S(=O)(=O)c1ccccc1,inactive,–
OC(c1ccccc1)c1nc(-c2cccs2)cs1 (configuration not stated),–,inconclusive: 53.9% [activator]
Oc1ccc(N2CCN(c3ccnc4cc(Cl)ccc34)CC2)cc1,inactive,–
CC(=O)NN1C(=O)/C(=C\c2ccc(Br)o2)SC1=S,"inconclusive: 3.55 µM [activator, full curve, poor fit]",–
COc1ccc(CCNC(=O)COC(=O)C2CCCCC2)cc1,"inconclusive: 17.8 µM [activator, partial curve, poor fit]",–
O=C(c1ccc(S(=O)(=O)N2CCCCCC2)cc1)N(c1ccccn1)C1CCCCC1,"inconclusive: 12.6 µM [activator, partial curve]",–
CSc1ccccc1OCc1cc(C(=O)N2C[C@H]3CC[C@H]2C3)no1,"inconclusive: 11.2 µM [activator, partial curve]",–
CC(C)CC1(C)NC(=O)N(CC(=O)Nc2ccccc2Br)C1=O (configuration not stated),inactive,–
COc1ccc(NC(=O)C/C(C)=N/NC(=O)COc2ccc(OC)cc2)cc1,inactive,–
Cc1ccc(SCC(=O)NNC(=O)c2ccccc2)c(C)c1,inactive,–
CC(=O)Nc1ccc(NC(=O)C2CCCCN2S(=O)(=O)c2ccc(C(C)(C)C)cc2)cc1 (configuration not stated),inactive,–
COC(=O)c1ccc(NC(=O)c2nc(S(=O)(=O)Cc3cccc(C)c3)ncc2Cl)cc1,"inconclusive: 3.55 µM [activator, partial curve, poor fit]",–
CN1C(=O)c2ccc(NC(=S)NC(=O)C(C)(C)C)cc2C1=O,"inconclusive: 17.8 µM [activator, single point]",–
O=C(NC(=S)NCc1ccccc1)c1ccccc1,"inconclusive: 12.6 µM [activator, partial curve, poor fit]",–
CC1CN(CCS(=O)(=O)c2cc(Cl)ccc2Cl)CC(C)O1 (configuration not stated),"inconclusive: 12.6 µM [activator, partial curve, poor fit]",–
Cc1cc(C(=O)CCl)c(C)n1-c1ccon1,"inconclusive: 12.6 µM [activator, partial curve, poor fit]",–
O=C1c2ccccc2C(=O)N1CSc1ncccn1,"inconclusive: 14.1 µM [activator, partial curve, poor fit]",–
O=C(/C=C/c1cccc([N+](=O)[O-])c1)NCCSCc1ccc(Cl)cc1,"inconclusive: 8.91 µM [activator, partial curve]",–
Brc1ccc(Nc2c3c(nc4nncn24)CCC3)cc1,"inconclusive: 14.1 µM [activator, partial curve, poor fit]",–
Cc1cc(O)c(/C=N/Nc2ccc(F)cc2)c(=O)o1,"inconclusive: 17.8 µM [activator, partial curve, poor fit]",–
CCc1ccc(NC(=O)C2=C(C)C(=O)OC23CCCCC3)cc1,"inconclusive: 12.6 µM [activator, single point]",–
